Reference: PubChem BioAssay AID1963576 (National Center for Advancing Translational Sciences (NCATS), 2024)
In all, about 46,000 compounds went through this assay and about 60 (0.1%) were called active. Roughly 3% stayed inconclusive and do not appear here. The call rests on the fitted dose curve; in most records, active means well fitted inhibition curve with a large enough effect; inconclusive means small, poorly fitted or top-dose-only effect; inactive means no such curve, though single readings can be large or run the other way. The list shows a part of the results.

Experiment: Primary qHTS assay for Inhibitors of ovarian cancer metastasis using an organotypic tumor microenvironment (TME) model. Further: nearly all actives have a fitted effect of over 65% in size.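 On activity change, negative = inhibition: plate controls were DMSO wells for no effect and tomatine positive control wells for full effect.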
Conditions: SKOV3ip1-GFP adhesion/invasion on 3D omental model, fluorescence; series mostly up to 45.8 µM; activity change, negative = inhibition: at the top concentration
Outline: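 Primary human omental fibroblast/mesothelial 3D culture pre-formed 48 h. SKOV3ip1-GFP cells added with compounds (0.36-46 umol/L), incubated 2 h RT/16 h 37 C, fixed; GFP cells quantified at 488/509 nm.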

outcome, inactive:
Cc1cccc(N2CCN(S(=O)(=O)c3ccc4c(c3)C(C(C)C)C(=O)N4)CC2)c1C (stereo unspecified)
Cc1ccc(-c2nnc(SCC(=O)c3ccc(Cl)cc3)n2-c2ccccc2)cc1
CCCCOc1ccc(C(=O)NCCc2sc(-c3ccc(OC)c(OC)c3)nc2C)cc1
COc1cc(NC(=O)CC2C(=O)N(c3cccc(C)c3)C(=O)N2Cc2ccco2)cc(OC)c1 (stereo unspecified)
Cc1ccc(-n2nc3c(=O)n(CC(=O)NC(C)C)nc(C)c3c2C)cc1
CCC(CC)C(=O)Nc1ccc2nc(SCc3ccccc3)sc2c1
Cc1ccc(C(=O)N(Cc2ccco2)Cc2ccco2)cc1
C=CCc1c(C)nc2nc(SCC(=O)Nc3ccccc3CC)nn2c1C

Activity change, negative = inhibition, inactive:
COc1ccc(N2CCN(C(=O)CSc3c4c(nc5ccc(Cl)cc35)CCCC4)CC2)cc1 -30.5%
O=C(Nc1cccc(O)c1)c1cc2nc(-c3ccc(Br)cc3)cc(C(F)(F)F)n2n1 1.88%
CCOc1ccc(CNC(=O)c2ccc3c(c2)N(CC)CCS3)cc1 -6.69%
COc1ccc(S(=O)(=O)c2c(Nc3c(C)cccc3C)sc(C(=O)c3ccc4c(c3)OCO4)c2N)cc1 0.204%
COc1ccc(CN(C)c2ccc(-c3nc(-c4ccccc4)no3)cc2[N+](=O)[O-])cc1 -9.35%
O=C(Nc1ccc2oc(-c3cccnc3)nc2c1)c1ccc(-c2cccc(Cl)c2)o1 -16.4%
COc1cccc(CCNC(=O)c2cnc3sc(N4CCCCCC4)nn3c2=O)c1 5.79%
Cc1cccc(Nc2ncc(NC(=O)c3cccc(F)c3)c(Nc3cccc(C)c3)n2)c1 -4.35%
CS(=O)(=O)c1ncc(Cl)c(C(=O)Nc2c(C(=O)Nc3ccccc3)oc3ccccc23)n1 -5.96%
COc1ccc2c(CC(=O)Nc3ccc(C)cc3)coc2c1 5.02%
CCN(C(=O)CSc1nnc(-c2cc(OC)c(OC)c(OC)c2)o1)c1ccccc1 7.01%
Clc1ccc(CCNc2nc3ccccc3c3nc(-c4ccccc4)nn23)cc1 -4.57%
O=C(CSc1nnc(-c2ccncc2)n1-c1ccccc1)Nc1ccc(Cl)c(Cl)c1 -2.47%
COc1ccc(NC(=O)CSC2=Nc3ccccc3C3=NC(CC(=O)NCc4ccco4)C(=O)N23)cc1 (stereo unspecified) 7.65%
CCOc1cccc(CC(=O)NCc2ccc3c(c2)CCN3C(=O)c2ccc(F)cc2)c1OCC 4.85%
CCOc1ccc(NC(=O)Cn2cc(C(=O)c3cccs3)c3ccccc32)cc1 -11.7%
CCOc1cc(CNC(=O)c2ccccc2NC(=O)c2nsc3ccccc23)ccc1OC 0.532%
CCOc1ccc(CCNC(=O)CN2CCN(Cc3ccc(F)cc3Cl)C2=O)cc1OCC 6.46%
